# Laboratory results as given in publication PMC4336329 (PLoS ONE, 2015).
# Out of some 310,000 compounds screened, about 2,200 (0.71%) showed an effect of 50% or more. Effects have a minus sign here. Some of the results follow.
# Molecular target: human ether-à-go-go-related gene (hERG) potassium channel (human, UniProt Q12809)
# Assay: primary screen, population patch clamp on CHO cells stably expressing hERG
# Sequence of human ether-à-go-go-related gene (hERG) potassium channel (Q12809 whole entry, looked up): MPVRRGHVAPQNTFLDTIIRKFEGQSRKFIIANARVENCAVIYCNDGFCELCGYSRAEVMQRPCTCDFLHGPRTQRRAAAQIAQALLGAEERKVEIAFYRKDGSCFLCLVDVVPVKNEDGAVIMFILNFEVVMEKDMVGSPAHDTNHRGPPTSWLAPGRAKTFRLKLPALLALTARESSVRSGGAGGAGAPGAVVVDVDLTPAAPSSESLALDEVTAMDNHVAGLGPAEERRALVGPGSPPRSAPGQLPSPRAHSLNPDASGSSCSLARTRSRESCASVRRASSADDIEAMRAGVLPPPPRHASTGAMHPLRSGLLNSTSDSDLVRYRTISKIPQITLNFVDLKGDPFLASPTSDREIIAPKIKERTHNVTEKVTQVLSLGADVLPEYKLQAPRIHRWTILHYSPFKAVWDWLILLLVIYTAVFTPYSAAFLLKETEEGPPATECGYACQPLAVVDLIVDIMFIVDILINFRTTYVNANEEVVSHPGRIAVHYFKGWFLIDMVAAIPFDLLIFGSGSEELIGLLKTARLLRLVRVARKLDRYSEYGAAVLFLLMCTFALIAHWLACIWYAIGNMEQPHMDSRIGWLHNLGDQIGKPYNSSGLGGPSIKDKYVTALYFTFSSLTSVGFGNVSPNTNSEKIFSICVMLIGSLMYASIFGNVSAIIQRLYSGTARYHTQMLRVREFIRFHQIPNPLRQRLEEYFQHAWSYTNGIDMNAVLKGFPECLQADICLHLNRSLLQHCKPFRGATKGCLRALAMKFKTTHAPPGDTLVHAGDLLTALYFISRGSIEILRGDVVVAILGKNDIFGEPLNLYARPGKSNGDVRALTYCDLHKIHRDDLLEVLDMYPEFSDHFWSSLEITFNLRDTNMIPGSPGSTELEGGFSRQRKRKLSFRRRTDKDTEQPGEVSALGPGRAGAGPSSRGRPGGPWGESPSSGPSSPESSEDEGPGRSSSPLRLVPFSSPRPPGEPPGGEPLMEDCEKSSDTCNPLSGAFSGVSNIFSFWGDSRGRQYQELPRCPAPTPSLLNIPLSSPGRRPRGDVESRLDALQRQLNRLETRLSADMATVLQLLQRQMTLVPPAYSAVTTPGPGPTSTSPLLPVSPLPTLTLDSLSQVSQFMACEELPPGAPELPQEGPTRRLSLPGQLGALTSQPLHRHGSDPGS
row,Structure (SMILES),"hERG current change (%, negative = inhibition) at 1uM [%]"
1,O=C(Nc1cccnc1)c1cc(-c2ccc(Cl)cc2Cl)on1,-2.82
2,CN(Cc1cnccn1)C(=O)CC1C(=O)NCCN1Cc1cccc(Oc2ccccc2)c1 (centres unmarked),4.94
3,CN(C)Cc1c(O)ccc2c(-c3ccccc3)cc(=O)oc12,14.7
4,COc1ccc(CNC(=O)Nc2cccc(Cl)c2)cc1,9.5
5,Cc1ccc(CN2CCN(C(=O)CCC(=O)Nc3nnc(C(C)C)s3)CC2)c(C)c1,13.3
6,O=C(NNC(=O)C12CC3CC(CC(C3)C1)C2)c1ccccc1[N+](=O)[O-],12.4
7,Cc1onc(-c2c(Cl)cccc2Cl)c1C(=O)ONC(=O)c1cc(C(F)(F)F)cc(C(F)(F)F)c1,7.84
8,O=C(NN1C(=O)C2C3CCC(O3)C2C1=O)c1ccco1 (centres unmarked),11.5
9,CN(C(=O)c1ccc(N2CCCCC2)c([N+](=O)[O-])c1)C1(C)CCS(=O)(=O)C1 (centres unmarked),-2.8
10,CN(CC(=O)Nc1ncn[nH]1)S(=O)(=O)c1ccc(Br)cc1,6.43
11,O=C(CNS(=O)(=O)c1ccc(Br)cc1)N1CCN(Cc2ccccc2)CC1,-0.28
12,Cn1c(=O)cc(OCC(=O)NCCCN2CCN(c3cccc(Cl)c3)CC2)c2ccccc21,-15.9
13,COc1ccc(NC(=O)CN(C)C(=O)CCc2ccccc2)cc1,11.2
14,CC(C)C(=O)NNC(=O)CSc1nnc(-c2ccccc2)c(-c2ccccc2)n1,14.6
15,Cc1cc(C)nc(NC(=O)c2c(C(=O)O)noc2C)n1,2.44
16,COc1ccc(-c2n[nH]c(C)c2-c2cscn2)c(O)c1,15
17,COc1ccc(NC(=O)CN(C)C(=O)c2ccc3c(c2)S(=O)(=O)N=C2CCCCCN23)cc1,18.6
18,CCc1nc(N2CCOCC2)c(C#N)c2c1COC(C)(C)C2,11.5
19,O=c1c2cc(NC(=S)NCCCN3CCC(Cc4ccccc4)CC3)ccc2nc2n1CCCCC2,-57.1
20,COc1ccc(Cl)cc1Nc1nc(-c2sc(NC(=O)C(C)(C)C)nc2C)cs1,5.37
21,Cc1c(C(=O)NC2CCCCC2)oc2ccccc12,6.27
22,CC(C)(C)OC(=O)NCCCCCc1nnc(SCC(N)=O)o1,-1.99

row,Structure (SMILES),"hERG current change (%, negative = inhibition) at 1uM [%]"
1,O/N=C/c1cc(Cl)ccc1OCc1ccccc1Cl,16.1
2,CN(CCC#N)C(=O)COC(=O)c1ccccc1C(=O)c1ccc(Cl)c([N+](=O)[O-])c1,8.44
3,O=C(NCC(=O)N(Cc1ccco1)C(C(=O)NC1CCCC1)c1cccnc1)c1cccs1 (centres unmarked),6.15
4,Cc1cc(C)nc(SCc2ccc(C(=O)N/N=C/c3ccc(C(=O)O)cc3)cc2)n1,7.12
5,Cc1cc(NC(=O)COC(=O)c2ccc(NS(=O)(=O)c3ccc(C)c(C)c3)cc2)no1,8.14
6,CCCCN(CC)CCCNC(=O)c1cn(C)c(=O)c2c1c1ccccc1n2C,3.96
7,CC(=O)Nc1ccc(Oc2cc(C#N)c(C#N)cc2N2CCOCC2)cc1,5.03
8,CN1CCN(CCCNC(=O)CCC(=O)N2CCOc3ccccc32)CC1,8.85
9,CCCc1nnc(NC(=O)CCC(=O)N2CCN(C3c4ccccc4-c4ccccc43)CC2)s1,12.9
10,COc1ccc(CNC(=O)CC2C(=O)NCCN2CC(C)(C)C)c(OC)c1 (centres unmarked),-0.778
11,CCc1ccc(-c2ccc(C(=O)O)cc2)nc1,14.3
12,COc1ccc(OC)c(NC(=O)CCN2CC(C)OC(C)C2)c1 (centres unmarked),7.64
13,COC(=O)/C=C1\N/C(=N\c2nc(C)cc(C)n2)N(c2ccc(Cl)cc2)C1=O,9.23
14,CCN(CC)S(=O)(=O)c1cccc(NC(=O)CCSc2ccc(Cl)cc2)c1,5.18
15,CC(=O)c1cc(-c2ccccc2)n(CC(=O)N2CCC(C)CC2)c1C,0.147
16,CC(C)CCn1c(=O)c2ccccc2n2c(CN3C(=O)NC4(CCC(C)CC4)C3=O)nnc12 (centres unmarked),-2.47
17,O=C(Cc1cccc2ccccc12)Nc1nnc(-c2cccc([N+](=O)[O-])c2)s1,6.91
18,COc1cc(/C=C2\NC(=S)NC2=O)ccc1OCc1cccc(C(=O)O)c1,6.37
19,COc1cc(OC)c(OC)cc1CN1CCCC(C(=O)N2CCCC2)C1.O=C(O)C(=O)O (centres unmarked),18.2
20,CCn1c(CNC(=O)c2ccco2)nnc1SCCOc1ccccc1,11.1
21,O=C(Nc1cccc(C(F)(F)F)c1)OC1CN2CCC1CC2 (centres unmarked),8.86
22,COc1ccc(CCNC(=O)C2CCN(S(=O)(=O)N3CCC(C)CC3)CC2)cc1OC,15.7

row,Structure (SMILES),"hERG current change (%, negative = inhibition) at 1uM [%]"
1,COc1ccc(/C=C(\C#N)C(=O)N2COCC2(C)C)cc1,7.39
2,O=C(NC1CCCC1)c1ccc(Br)o1,2.22
3,CN(C)S(=O)(=O)c1cccc(-c2cn3cccnc3n2)c1,13.5
4,COc1ccc(C(=O)Cn2c3ccccc3n3nc(CCC(=O)O)c(=O)nc23)cc1OC,12.5
5,COc1ccc(CNCc2ccc3ccccc3c2)c(OC)c1.O=C(O)C(=O)O,-14.1
6,Cc1c(C(c2cc3c(cc2Br)OCO3)c2c(C)n(C)n(-c3ccccc3)c2=O)c(=O)n(-c2ccccc2)n1C,1.6
7,CCOc1ccc(NS(=O)(=O)c2ccc(NC(=S)NC(C)=O)cc2)cc1,10.8
8,COc1ccc(N(C(C)C(=O)N(C)Cc2ccccc2)S(C)(=O)=O)cc1 (centres unmarked),14.5
9,COc1ccc(CCNC(=O)CS(=O)(=O)Cc2nc(-c3ccc(C)cc3)oc2C)cc1OC,5.06
10,CC(O)c1ccc(Oc2cnccn2)cc1 (centres unmarked),18.4
11,COC(=O)C1=C(c2ccc(OC)c(OC)c2)C[C@@H]2CC[C@H]1N2C(=O)NC1CC1,3.73
12,CCOC(=O)c1cc(-c2cc(OC)c(OC)c(OC)c2)nc2c1c(=O)[nH]c(=O)n2Cc1ccccc1,10.8
13,COc1ccc(NC(=O)c2cc3ccccc3[nH]2)cc1,10.1
14,CCC1CCCCN1C(=O)c1cc(COc2ccc3ncccc3c2)on1 (centres unmarked),15
15,COc1ccc(C2CC(c3ccccc3)=NN2C(=O)COC(=O)c2cnc(Cl)c(Cl)c2)cc1 (centres unmarked),8.17
16,COc1ccc(C(C)=O)c(Oc2ccc(S(=O)(=O)N3CCOCC3)cn2)c1,-1.82
17,Cc1cccc(NC(=O)c2cccc(NC3=NC4CS(=O)(=O)CC4S3)c2)c1 (centres unmarked),9.52
18,O=C(Cc1ccccn1)c1ccc(O)cc1O,12.6
19,COc1ccccc1CNC(=O)C(=O)Nc1nccs1,14.2
20,COc1ccc(CNc2cc([N+](=O)[O-])ccc2OC)cc1,2.46
21,C=C(c1ccc(OCCO)cc1)c1ccc(OCCO)cc1,16.6
22,Cn1cnnc1SCC(=O)NN1C(=O)NC(C)(c2ccccc2)C1=O (centres unmarked),5.33

row,Structure (SMILES),"hERG current change (%, negative = inhibition) at 1uM [%]"
1,COc1cc(/C=C/C2=NC(=O)C(C)(C)O2)ccc1O,12.2
2,C=CCNc1nnc(SCC(=O)Nc2ccccc2OC)c2ccccc12,13.3
3,O=C(CSc1ccc2nnc(-c3cccc(F)c3)n2n1)NCC1CCCO1 (centres unmarked),-10.5
4,Cc1ccc(S(C)(=O)=NC(=O)NC(=O)c2c(F)cccc2Cl)cc1 (centres unmarked),9.61
5,COc1ccc2sc(-c3ccccc3OC)c(C#CCCO)c2c1,12.2
6,CCCNC(=O)C(Cc1ccc(C(F)(F)F)cc1)NC(=O)c1ccc(C#N)cc1 (centres unmarked),-5
7,NC(=O)[C@@H]1CCCN1C(=O)c1ccc2nc(Cc3ccccc3F)oc2c1,16.7
8,O=C1C=C(c2ccc(F)nc2)CCC1,10.2
9,Cc1csc(SC(C)C(=O)Nc2ccc(Cl)cn2)n1 (centres unmarked),3.3
10,CCc1cccc(C)c1NC(=S)NCCc1c(C)[nH]c2ccc(C)cc12,11.3
11,O=C(Nc1ccc(S(=O)(=O)Nc2ncccn2)cc1)c1ccc(F)c(S(=O)(=O)N2CCOCC2)c1,6.95
12,O=C(c1cccs1)N1CCN=C1SCc1ccc(F)cc1,9.02
13,CCOc1ccc(-c2cc(C(=O)OC)nc3c2c(=O)n(C)c(=O)n3C)cc1,5.32
14,CCCCN(CC)C(=O)CN1C(=O)c2ccccc2C1=O,5.7
15,CC(C)(C)OC(=O)N1CCC(NC(=O)c2nc[nH]c2C(=O)NC2CCN(C(=O)OC(C)(C)C)CC2)CC1,12
16,O=C(CN1N=C(c2ccccc2)CCC1=O)NCCN1CCc2ccccc2C1,2.66
17,CC(C)=CCc1c2c(c(O)c3c(=O)c4c(oc13)-c1cc(O)c(O)cc1OC4C=C(C)C)C=CC(C)(C)O2 (centres unmarked),12.6
18,CCOc1ccc(C2N(c3ccc(OC)cc3)C(=O)C3CCCN32)cc1OC (centres unmarked),9.87
19,O=[N+]([O-])c1cccc(N=NN(CCO)c2cccc([N+](=O)[O-])c2)c1,11.7
20,CC(C)(C)C(=O)Nc1ccc(C(=O)N/N=C/c2ccccc2OC(=O)c2ccc(Cl)cc2)cc1,9.38
